Laboratory results from the supplement of paper PMC3334620.
The full ranking holds about 33,000 sequences; the median of “E-score (-0.5 to 0.5)” is about -0.043, and the highest 2% start at about 0.37. The list shows a part of the results.

The sequences below were run against T1, Upc2 (UniProt Q12151) (assay: PBM E-score (8-mer binding enrichment) (E-score (-0.5 to 0.5)); higher = stronger / more preferred TF binding; most listed sequences are background and not binding sites). Conditions: protein concentration: 200 nM; construct: GST-full length.
T1 sequence: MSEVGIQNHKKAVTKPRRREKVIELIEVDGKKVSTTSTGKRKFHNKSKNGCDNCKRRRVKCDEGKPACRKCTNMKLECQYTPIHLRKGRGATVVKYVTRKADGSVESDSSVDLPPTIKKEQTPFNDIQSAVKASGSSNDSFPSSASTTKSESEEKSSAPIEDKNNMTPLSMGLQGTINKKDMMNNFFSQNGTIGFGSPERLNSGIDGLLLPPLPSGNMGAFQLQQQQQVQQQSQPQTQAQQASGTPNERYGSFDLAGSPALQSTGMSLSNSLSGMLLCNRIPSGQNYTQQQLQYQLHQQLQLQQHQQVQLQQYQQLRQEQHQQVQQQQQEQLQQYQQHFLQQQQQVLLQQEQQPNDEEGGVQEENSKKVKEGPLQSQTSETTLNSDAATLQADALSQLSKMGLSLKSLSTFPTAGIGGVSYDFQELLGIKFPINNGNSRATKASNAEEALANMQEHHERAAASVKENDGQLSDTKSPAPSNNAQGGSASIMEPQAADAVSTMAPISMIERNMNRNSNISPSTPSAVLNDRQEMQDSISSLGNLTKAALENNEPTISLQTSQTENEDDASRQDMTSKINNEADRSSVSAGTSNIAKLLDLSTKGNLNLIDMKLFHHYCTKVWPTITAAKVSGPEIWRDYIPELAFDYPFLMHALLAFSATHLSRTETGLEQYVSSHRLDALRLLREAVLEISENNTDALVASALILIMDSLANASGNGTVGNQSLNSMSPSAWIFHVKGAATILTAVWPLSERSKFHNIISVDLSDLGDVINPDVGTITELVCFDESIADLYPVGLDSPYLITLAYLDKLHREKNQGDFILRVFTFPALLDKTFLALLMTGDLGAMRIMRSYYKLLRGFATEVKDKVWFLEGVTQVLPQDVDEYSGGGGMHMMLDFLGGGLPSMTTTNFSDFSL
How it was run: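 Bound GST-tagged yeast transcription factors, applied at about 100-200 nM to double-stranded universal all-10-mer Agilent arrays, were detected with fluorescent anti-GST. Scans were normalised with masliner. A modified Wilcoxon-Mann-Whitney statistic, the E-score, was assigned to each ungapped eight-base word pooled with its reverse complement by the Universal PBM Analysis Suite.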

Row | Sequence | PBM E-score
1 | AACGTTAC | 0.134
2 | AACTATAC | 0.323
3 | GCGATGCA | -0.105
4 | GAAGATCA | 0.237
5 | ATTGGATG | 0.03
6 | AGGTCTTC | -0.234
7 | GATCTTTA | 0.101
8 | GACCACCA | -0.247
9 | AATGGAGT | -0.266
10 | ACCTAGCT | -0.187
11 | ATGTCCTG | -0.138
12 | AAAATCAT | 0.0215
13 | TCAGACAA | -0.17
14 | CAGATAAA | -0.0555
15 | GGGCGATA | -0.131
16 | GTGCCCCA | -0.206
17 | AATTTCTA | 0.0252
18 | AAACCCGG | -0.0476
19 | ATTCTGGA | -0.0119
20 | CGAGGAAC | 0.304
21 | AGAAATGC | 0.0091
22 | ACTATTAA | 0.0336

Row | Sequence | PBM E-score
23 | AAGCAGCA | -0.0232
24 | ATTAGTCA | -0.0731
25 | AATATCGG | 0.124
26 | GTTGCCAA | 0.0503
27 | CGGTCTGA | -0.129
28 | AATCGCAG | -0.0857
29 | CGTGTACC | 0.116
30 | CACATACG | 0.401
31 | CAGTTGGC | -0.216
32 | ACGCGATA | 0.198
33 | GGCCATTA | -0.219
34 | GACGTTAA | 0.154
35 | TCAACTAA | -0.0513
36 | ACGATAGG | 0.213
37 | AGAGTAAC | -0.0308
38 | GTCTGGCA | -0.266
39 | AACTTAGG | -0.188
40 | GAGACGAC | 0.00414
41 | CAAATTAC | 0.0461
42 | CTTAGGAA | -0.0438
43 | TGTTCAAA | -0.0111
44 | AGGTGTCA | -0.138

Row | Sequence | PBM E-score
45 | GGGTGCGA | 0.112
46 | CCATACAA | -0.09
47 | AAAAATCA | -0.0828
48 | GTTCAGGA | 0.266
49 | CCGAAAAA | 0.0605
50 | CACTTTCC | -0.336
51 | ACCCGAAG | -0.04
52 | GCGTTAGC | -0.115
53 | AACAATCA | -0.0313
54 | ATGAATTC | -0.0133
55 | AAACCCAA | -0.144
56 | CAATCACA | 0.049
57 | ATCATAGG | -0.149
58 | TGTGTAAA | 0.0616
59 | ACCGTAGT | 0.114
60 | GGCCTACA | -0.138
61 | CCGTACAG | 0.418
62 | AAAATCGC | 0.0632
63 | CGGGGAAC | 0.028
64 | CCAAACTC | 0.024
65 | AACGCTCG | 0.23
66 | GATGGGGC | -0.237

Row | Sequence | PBM E-score
67 | ACCCGCGC | -0.022
68 | CGACCTAC | 0.0511
69 | ATACCGTA | 0.282
70 | GGGTCTAA | -0.293
71 | GTCGGGTA | 0.16
72 | CTTAGATA | -0.0328
73 | ATGGCCAT | -0.285
74 | AATCGCCT | 0.0288
75 | CTGTTCGC | 0.112
76 | GTTACTAA | 0.0742
77 | GCCCACCC | 0.00994
78 | CTGGGGTA | -0.194
79 | ACGGGAAT | 0.219
80 | CTATTGTC | -0.237
81 | ACCAAGTA | 0.0592
82 | TCCTCTCA | -0.23
83 | GATGGAAA | -0.15
84 | GTTGTGAA | 0.00742
85 | CCGGATAA | 0.0395
86 | GGGTTCAA | -0.157
87 | ATTTTTCG | 0.0906
88 | CTCTCCCA | -0.28

Row | Sequence | PBM E-score
89 | GTTGGAGA | -0.0488
90 | ACGGCAGG | -0.0437
91 | ATTTACTA | 0.0955
92 | GTATATGA | 0.212
93 | ATCTATAA | 0.21
94 | AAAGCATA | 0.0898
95 | GGGCTCCA | -0.29
96 | CATATTCC | -0.1
97 | CAGGTACA | -0.226
98 | CCACCCAG | -0.167
99 | AACTACAC | 0.00334
100 | CCGCCAAA | 0.0518
101 | TACACAAA | 0.184
102 | GCTCTTAA | 0.108
103 | GGGGTAGA | -0.138
104 | CCTGTGAA | 0.0145
105 | GTATGGAA | 0.0901
106 | GATAGTCA | 0.0712
107 | AATAGCTA | 0.0695
108 | GCGGATAA | -0.0351
109 | AACTCAGT | -0.192
110 | GACCAAAA | 0.193
